Assay results from the supplement of paper PMC3724861.
The other results are listed elsewhere or left out.

test system: T1, Caupolican (Caup) homeodomain DNA-binding domain; assay: PBM E-score (8-mer, recovered from the published 9-mer minima) (E-score (dimensionless, -0.5 to 0.5)); Drosophila protein; higher = stronger relative binding preference, active = 0.31 or more
T1 sequence: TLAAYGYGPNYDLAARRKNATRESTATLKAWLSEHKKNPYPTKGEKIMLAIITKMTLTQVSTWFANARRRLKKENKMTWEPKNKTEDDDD
Procedure, shortened: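 An enrichment score, with higher meaning stronger, expresses relative binding preference for each short DNA word. The protein used was Caup's homeodomain DNA-binding domain (residues 214-303), produced by in vitro transcription and translation and tested at 100 nM on custom-designed protein binding microarrays. The 8-mer values were recovered from published 9-mer scores, each equal to the lower of its two constituent 8-mer scores.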

PBM E-score, ≥ 0.198:
ATGAAAAT

PBM E-score, inactive:
ATGCAAGC 0.0571
ATAACACA 0.305
AAGTAGTG 0.00888
ATTGTTGA 0.279
CATATTGC -0.025
CATCGGCC -0.193
AGGTAGCC -0.102
GAAGCAGC -0.132
CATGATGG 0.042
CGGCACAC -0.144
ACAGCCTG 0.0595
AGATCATC 0.12
CAGGCAGC -0.212
ACGCTACT -0.0439
ATTTATAA 0.0926
CTAGTAAG 0.107
ACAGAAGG -0.0447
CTTGAGTA 0.0779
ATCTAATC 0.212
CTTGATTC 0.0185
ACCCAACA 0.0894
CCGGATGC -0.19
ATAGTTGA 0.0385
ATACTCTG 0.108
AAGGAGAA -0.0316
AGAGCTAA -0.0655
ACGAAGAG 0.049
CCAGATCC -0.232
GGCAAACA 0.134
CGTGCAAA 0.0033
GAGAGTGC -0.153
GAACGTGC -0.0483
ACGTCGAG -0.0187
CCCATTAG -0.203
ACTAATTG 0.121
AACAACTC 0.167
CGCCCTAC -0.0951
CGTAGACG -0.0639
CGACGTAC 0.0495
GTCGAAGA 0.0184
GGGCACAA -0.115
ACGGTCCG -0.154
CCTTGGGC -0.299
AGCTTTAG -0.0997
CTCTAGAA -0.0275
GGGAGAGA -0.188
AGCTGCCT -0.224
CCACCAGA -0.0319
TAAATTCA 0.0664
TCATATAA 0.184
CTGAAGAA -0.0787
CTCACCAC -0.0956
TAACCTAA 0.00458
AACCGGTA -0.0523
TAAGCTGA 0.033
CAATCCAC 0.0669
GTATGCAA 0.0814
GAATTGGC -0.0814
CTGTAAGA 0.138
CCGTCTAA -0.111
GTTGAAAA 0.0647
AAGGCGAG -0.172
CAGTTCAG -0.0606
AAAATTAC 0.105
TAAGAGGA -0.00194
ATGGCCAC -0.159
CATCTCCC -0.141
CTCACCCC -0.125
GTTAACTA 0.225
CGTCCCAA 0.00097
CCTCATAC 0.0479
TCAGTAAA 0.0574
CTCAAGAC -0.0657
ACCTATAG 0.0161
AGGCCATG -0.0199
GCAAAAAC 0.121
ACAGATGC 0.0498
AGTGACTA 0.0254
AACAAACC 0.161
CGACTGCA -0.0454
AACCGACT -0.0866
ATGAAAGC 0.0313
AGGCACGA -0.0862
TTAGGGAA 0.0477
CAGAGAAC -0.0238
TCTCTACA 0.134
GCGGTCCC -0.283
GCTTCCTA -0.0332
AACAAACG 0.114
AGTCTGGA 0.0279
CCTCGATA 0.0341
ACGCACAA 0.0343
AGTCAAAG -0.0591
AATGAAGG -0.0484
GACTGCCA -0.0551
GCCGCCCA -0.275
ACGTGCCC -0.083
GGCTTTCA -0.0986
CGTTGGAG -0.106
GTTTCACA 0.103
CGGATTAC 0.11
CACGCCTA -0.0375
CCTAGAGC -0.14
CAGATTTC -0.0366
GGGGATAC -0.108
CAAGTCAC 0.0842
GAGCACCC -0.226
ACAGTTTA 0.115
CGCAACGC -0.111
GCGCACAC -0.105
TACGGATA 0.0883
AGCATAAC 0.0955
GCTCGGTA -0.0505
GTCAGGGA -0.0842
ATTGACTC 0.041
ATTCTACC 0.13
GATGACCA 0.0255
CACATATC 0.277
ATCTGAGA 0.0115
CAAAATAA 0.0715
AGATACGC -0.121
ACGTCCTC -0.138
CTGTTGAC 0.137
CAGGGTGG -0.12
ACTTTATA 0.0789
CGACTGGC -0.168
CGACCTAG -0.0323
AATACACC 0.292
AGACTTCC -0.148
AGGAATGG 0.0254
GATCATAC 0.142
ACCGCAAG -0.162

PBM E-score, ≥ 0.127:
ATCGAATA

PBM E-score, ≥ 0.113:
ATATGAGA

PBM E-score, active:
GCGTGTAA 0.327
GTACATCA 0.383
ACCGTGTA 0.359
ATAAACAT 0.321
ATGTTCGA 0.34
ACATGTGA 0.312
ATACAAGC 0.316
